Source: publication PMC6919601, “Identification of Plasmodium dipeptidyl aminopeptidase allosteric inhibitors by high throughput screening” (PLoS ONE, 2019)
Screen size: about 110,000 compounds; about 230 (0.21%) showed an effect of 50% or more. This is one part of the list.

Biological target: DPAP1 (Plasmodium falciparum, UniProt Q8IIJ9)
Assay: primary screen, percent inhibition; read by cleavage of a fluorogenic dipeptide substrate; higher = more effect of the substance
Parameters: species or system P. falciparum D10 trophozoite lysates; single well
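Note: 30 min substrate incubation versus DMSO and 10 µM JCP410 controls.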

Sequence of DPAP1 (Q8IIJ9 whole entry, looked up): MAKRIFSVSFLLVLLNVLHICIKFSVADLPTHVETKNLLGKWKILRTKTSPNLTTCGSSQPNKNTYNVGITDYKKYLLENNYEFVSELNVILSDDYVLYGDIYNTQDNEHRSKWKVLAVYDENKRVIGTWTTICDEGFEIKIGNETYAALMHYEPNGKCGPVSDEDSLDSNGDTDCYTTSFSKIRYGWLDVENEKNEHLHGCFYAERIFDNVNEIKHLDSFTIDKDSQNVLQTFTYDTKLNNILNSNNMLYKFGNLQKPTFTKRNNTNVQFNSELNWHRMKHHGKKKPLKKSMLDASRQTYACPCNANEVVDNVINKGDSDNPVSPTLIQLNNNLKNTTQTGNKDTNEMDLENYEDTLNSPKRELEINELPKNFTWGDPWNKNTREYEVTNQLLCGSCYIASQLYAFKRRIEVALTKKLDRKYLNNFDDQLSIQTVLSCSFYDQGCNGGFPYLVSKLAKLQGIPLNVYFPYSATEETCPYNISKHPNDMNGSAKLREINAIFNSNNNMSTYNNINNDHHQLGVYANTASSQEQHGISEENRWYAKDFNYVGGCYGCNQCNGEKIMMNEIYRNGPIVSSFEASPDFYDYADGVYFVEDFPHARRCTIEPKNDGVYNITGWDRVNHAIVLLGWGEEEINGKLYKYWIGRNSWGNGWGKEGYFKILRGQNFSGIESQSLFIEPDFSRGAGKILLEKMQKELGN

**Q.** Which “% Inhibition @ 10 uM” value does the source give for `O=C(CSc1nc(O)c(Cc2ccccc2F)c(O)n1)N1CCCCCC1` here?
**A.** Its value is -5.28%.

**Q.** Which “% Inhibition @ 10 uM” value does the source give for `COCCNC(=O)/C(C#N)=C/c1c(Oc2ccc(Br)cc2)nc2ccccn2c1=O` here?
**A.** The value was 7.65%.

**Q.** With `COc1ccc(NC(=O)/C(=C/c2ccc(Cl)cc2)NC(=O)c2ccco2)cc1` as the molecule, how does the “% Inhibition @ 10 uM” value read?
**A.** The value was -7.09%.

**Q.** For `C#CCN1C(=O)S/C(=C\c2cc3c(cc2Cl)OCO3)C1=O`, which “% Inhibition @ 10 uM” value is on record?
**A.** Its value is 5.17%.

**Q.** How did the “% Inhibition @ 10 uM” value turn out when `CCOc1ccc(C(=O)C2=C(O)C(=O)N(CCCN3CCOCC3)C2c2ccc(F)cc2)c(C)c1` (stereo not drawn) was run?
**A.** The value was 1.31%.

**Q.** `Cc1oc(-c2cccc(Cl)c2)nc1CS(=O)CC(=O)NCc1ccc(Cl)cc1` (stereo not drawn) was tested. Which “% Inhibition @ 10 uM” value did it give?
**A.** Its value is 0.689%.

**Q.** How did the “% Inhibition @ 10 uM” value turn out when `COc1ccc(S(=O)(=O)N(C)CCc2ccccn2)cc1` was run?
**A.** Its value is -3.13%.

**Q.** `Cc1cc(C)c(S(=O)(=O)Nc2noc3ccccc23)c(C)c1` was tested. Which “% Inhibition @ 10 uM” value did it give?
**A.** Its value is 2.19%.

**Q.** For `Cc1ccc(CNC(=O)C2CCN(C(=O)c3ccc(-n4c(C)cc5ccccc54)s3)CC2)o1`, which “% Inhibition @ 10 uM” value is on record?
**A.** The value was -1.92%.

**Q.** How did the “% Inhibition @ 10 uM” value turn out when `CCOc1ccc(NC(=O)NC(C(F)(F)F)C(F)(F)F)cc1` was run?
**A.** Its value is -2.44%.

**Q.** For `CCS(=O)(=O)c1cccc2c(S(=O)(=O)CC)cccc12`, which “% Inhibition @ 10 uM” value is on record?
**A.** The value was -3.66%.

**Q.** With `CNC(=O)C1=C(C)N=C(S)NC1c1ccccc1Cl` (stereo not drawn) as the molecule, how does the “% Inhibition @ 10 uM” value read?
**A.** The value was 5.3%.

**Q.** Which “% Inhibition @ 10 uM” value does the source give for `Cc1cc(C(=O)N2CCN(C3CCCCC3)CC2)c2c(C)nn(-c3ccccc3Cl)c2n1` here?
**A.** The value was -3.1%.

**Q.** `O=C(NCC1CCCO1)c1ccccc1Cl` (stereo not drawn) was tested. Which “% Inhibition @ 10 uM” value did it give?
**A.** The value was -1.04%.

**Q.** Which “% Inhibition @ 10 uM” value does the source give for `Cc1cc2ccccc2n1CCNC(=O)c1ccc(C(C)(C)C)cc1` here?
**A.** The value was -2.87%.

**Q.** For `Cc1nnc(NC(=O)CSc2nc(-c3ccc(F)cc3)nc3c2c(=O)n(C)c(=O)n3C)s1`, which “% Inhibition @ 10 uM” value is on record?
**A.** The value was -1.08%.

**Q.** For `Cc1c(C(=O)NCc2ccccn2)sc2nc3n(c(=O)c12)CCCCC3`, which “% Inhibition @ 10 uM” value is on record?
**A.** Its value is -3.18%.

**Q.** `O=C(CCc1ccccc1)N1CCN(c2ccc(Cl)cc2)CC1` was tested. Which “% Inhibition @ 10 uM” value did it give?
**A.** The value was -0.436%.

**Q.** For `C(=C\c1ccccc1)/CN1CCN(C2CCSC2)CC1` (stereo not drawn), which “% Inhibition @ 10 uM” value is on record?
**A.** Its value is -1.81%.

**Q.** Which “% Inhibition @ 10 uM” value does the source give for `CCSC1=NSC2=NC(=O)/C(=C\c3ccc(OC)cc3)C(=N)N12` here?
**A.** The value was 3.33%.

**Q.** `CC1=C(C(=O)Nc2ccccc2F)C(c2ccccc2C)C2=C(O)CCCC2=N1` (stereo not drawn) was tested. Which “% Inhibition @ 10 uM” value did it give?
**A.** Its value is -7.3%.

**Q.** For `COc1ccccc1NC(=O)C1=C(C)Nc2nc(CCCO)nn2C1c1ccc(Cl)c(Cl)c1` (stereo not drawn), which “% Inhibition @ 10 uM” value is on record?
**A.** Its value is 4.76%.

**Q.** With `COc1ccc(C2(C(=O)NC(C)(C)C)CCOCC2)cc1` as the molecule, how does the “% Inhibition @ 10 uM” value read?
**A.** Its value is 3.1%.

**Q.** Which “% Inhibition @ 10 uM” value does the source give for `COc1ccc(-n2c(SCC(=O)Nc3nc(C)cs3)nnc2-c2c[nH]c3ccccc23)cc1` here?
**A.** The value was 0.44%.

**Q.** How did the “% Inhibition @ 10 uM” value turn out when `COc1ccc(S(=O)(=O)N[C@@H](Cc2ccc3ccccc3c2)C(=O)NCC#N)cc1` was run?
**A.** Its value is -7.36%.

**Q.** With `COc1ccccc1N1CCN(C(=O)Cc2c(SC)[nH]c3ccccc23)CC1` as the molecule, how does the “% Inhibition @ 10 uM” value read?
**A.** Its value is 2.48%.

**Q.** `COc1ccc(-c2nc3ccccc3n2CC(C)C)cc1` was tested. Which “% Inhibition @ 10 uM” value did it give?
**A.** Its value is -0.551%.

**Q.** With `COc1cccc(C2C3=C(O)CCCC3=NC(C)=C2C(=O)Nc2ccccc2F)c1` (stereo not drawn) as the molecule, how does the “% Inhibition @ 10 uM” value read?
**A.** Its value is -5.34%.

**Q.** `CCOC(=O)c1cc(-c2ccc(OC)c(S(=O)(=O)NCCc3ccc(Cl)cc3)c2)on1` was tested. Which “% Inhibition @ 10 uM” value did it give?
**A.** The value was 1.61%.

**Q.** For `O=C(NS(=O)(=O)c1cnccc1Sc1ccc(Cl)cc1)c1ccc(Cl)cc1`, which “% Inhibition @ 10 uM” value is on record?
**A.** The value was -8.92%.

**Q.** How did the “% Inhibition @ 10 uM” value turn out when `Nc1ncccc1NC(=O)CCCC(=O)O` was run?
**A.** The value was -4.42%.

**Q.** How did the “% Inhibition @ 10 uM” value turn out when `Cc1oc(-c2ccccc2)nc1CSc1nc2ncccc2o1` was run?
**A.** Its value is 1.97%.

**Q.** `Brc1cnc2[nH]c(COc3ccccc3)nc2c1` was tested. Which “% Inhibition @ 10 uM” value did it give?
**A.** Its value is 0.0345%.

**Q.** `CC(Cc1ccccc1)(NC(=O)CN)c1ccccc1` (stereo not drawn) was tested. Which “% Inhibition @ 10 uM” value did it give?
**A.** Its value is 1.43%.

**Q.** `Cc1nc(N2C(=O)C(O)=C(C(=O)c3cccs3)C2c2cccc(Br)c2)sc1C` (stereo not drawn) was tested. Which “% Inhibition @ 10 uM” value did it give?
**A.** Its value is -12.6%.

**Q.** With `Cc1nc2cc(-c3ccccc3)nn2c(C)c1CCC(=O)NCCCN1CCCC1=O` as the molecule, how does the “% Inhibition @ 10 uM” value read?
**A.** Its value is -2.25%.

**Q.** Which “% Inhibition @ 10 uM” value does the source give for `Cc1cc(C)n(-c2nc(-c3cccnc3)nc3ccccc23)n1` here?
**A.** The value was 0.408%.

**Q.** With `CN(Cc1ccccc1)C(=O)c1cc(-c2ccco2)[nH]n1` as the molecule, how does the “% Inhibition @ 10 uM” value read?
**A.** Its value is 1.76%.

**Q.** With `CC1CCN(S(=O)(=O)c2ccc3c(ccn3CCC(=O)NC3CCCc4ccccc43)c2)CC1` (stereo not drawn) as the molecule, how does the “% Inhibition @ 10 uM” value read?
**A.** Its value is -1.08%.

**Q.** `CCC1=NN(C(=O)c2ccccc2OC)C(O)(C(F)(F)F)C1` (stereo not drawn) was tested. Which “% Inhibition @ 10 uM” value did it give?
**A.** Its value is -1.96%.

**Q.** Which “% Inhibition @ 10 uM” value does the source give for `O=C(Cn1c(-c2ccccn2)nc2ccccc21)NCCCN1CCOCC1` here?
**A.** The value was -5.92%.

**Q.** With `Cc1cc(=O)oc2c3c(ccc12)OCN(c1ccccn1)C3` as the molecule, how does the “% Inhibition @ 10 uM” value read?
**A.** The value was -6.85%.

**Q.** With `Clc1ccc(-c2ccc(CN3CCc4ccccc4C3)o2)cc1` as the molecule, how does the “% Inhibition @ 10 uM” value read?
**A.** Its value is -4.75%.

**Q.** For `Cc1cccc(/C=C2/SC(=O)N(Cc3ccccc3Cl)C2=O)n1`, which “% Inhibition @ 10 uM” value is on record?
**A.** Its value is -4.88%.

**Q.** How did the “% Inhibition @ 10 uM” value turn out when `O=C(NCc1ccc2c(c1)OCO2)c1ccccc1Br` was run?
**A.** The value was 2.92%.

**Q.** Which “% Inhibition @ 10 uM” value does the source give for `CCOC(=O)c1sc(NC(=O)c2nc(S(C)(=O)=O)ncc2Cl)c(C(=O)OCC)c1C` here?
**A.** Its value is -1.11%.

**Q.** How did the “% Inhibition @ 10 uM” value turn out when `COCc1[nH]nc2c1C(c1cc(OC)ccc1OC)C(C#N)=C(N)O2` (stereo not drawn) was run?
**A.** The value was 4.39%.

**Q.** With `O=S(=O)(NCCc1ccc(Cl)cc1)c1ccc2[nH]c3c(c2c1)CCCC3` as the molecule, how does the “% Inhibition @ 10 uM” value read?
**A.** Its value is 1.71%.

**Q.** `O=C1c2ccccc2C(=O)C1(c1ccccc1)N1CCN(CCO)CC1` was tested. Which “% Inhibition @ 10 uM” value did it give?
**A.** Its value is -1.83%.

**Q.** `CCc1ccc(-c2nc(CSCC(=O)NCc3cccs3)c(C)o2)cc1` was tested. Which “% Inhibition @ 10 uM” value did it give?
**A.** The value was 3.99%.

**Q.** For `C1=C(CCNc2nc3ccccc3n3nnnc23)CCCC1`, which “% Inhibition @ 10 uM” value is on record?
**A.** Its value is -2.25%.

**Q.** How did the “% Inhibition @ 10 uM” value turn out when `O=C(C1CCC(=O)N1C1CCCC1)N1CCC2(CC1)OCCO2` (stereo not drawn) was run?
**A.** The value was -1.21%.

**Q.** With `COc1ccccc1N1C(=O)C2ON(c3ccccc3)C(c3cccc([N+](=O)[O-])c3)C2C1=O` (stereo not drawn) as the molecule, how does the “% Inhibition @ 10 uM” value read?
**A.** The value was 6.8%.

**Q.** How did the “% Inhibition @ 10 uM” value turn out when `Cc1ccc(NC(=O)c2ccc(C)o2)c(NC(=O)c2ccc(C)o2)c1` was run?
**A.** The value was -11.8%.

**Q.** With `COC(=O)c1nnn(-c2nc(N(C)C)nc(N(C)C)n2)c1C` as the molecule, how does the “% Inhibition @ 10 uM” value read?
**A.** The value was 2.57%.

**Q.** Which “% Inhibition @ 10 uM” value does the source give for `Cc1cccc(CSc2nc3ccc(C(=O)NCc4ccco4)cc3n2C)c1` here?
**A.** The value was 3.71%.

**Q.** With `COc1ccc(-c2nc(N)n(C(=O)c3ccccc3Cl)n2)cc1` as the molecule, how does the “% Inhibition @ 10 uM” value read?
**A.** Its value is -1.1%.

**Q.** With `CN(C)c1ccc2c(c1)OC(N)=C(C#N)C2c1ccc(-c2ccccc2)cc1` (stereo not drawn) as the molecule, how does the “% Inhibition @ 10 uM” value read?
**A.** The value was 6.06%.

**Q.** For `Cc1cc(C)c2oc(C(=O)Nc3cccnc3)cc(=O)c2c1`, which “% Inhibition @ 10 uM” value is on record?
**A.** The value was -8.95%.

**Q.** How did the “% Inhibition @ 10 uM” value turn out when `Cc1c(C#N)c2ncnc(Cl)c2n1-c1ccccc1` was run?
**A.** Its value is 3.05%.

**Q.** How did the “% Inhibition @ 10 uM” value turn out when `CCC(C)NC(=O)Cc1cn(C)c2ccccc12` (stereo not drawn) was run?
**A.** The value was -8.17%.

**Q.** How did the “% Inhibition @ 10 uM” value turn out when `Cc1cc(C)nc(NS(=O)(=O)c2ccc(NC(=O)COc3c(C)cccc3C)cc2)n1` was run?
**A.** The value was 1.57%.

**Q.** With `CC1=C(C(=O)OCC2CCCCC2)C(c2ccccc2OC(C)C)NC(=O)N1` (stereo not drawn) as the molecule, how does the “% Inhibition @ 10 uM” value read?
**A.** Its value is 8.98%.
